Test results published in patent US20070224633A1 (Pieris, published 2007).
Read-outs that look alike come from different tables or passages of the source.

T1: hCD22-Fc, captured via the anti-human IgG FcGamma fragment-specific antibody (human, UniProt P20273 20-687, limits assumed)
T1 construct: not shown: Fc part of the bought fusion protein; not described
T1 sequence (looked up): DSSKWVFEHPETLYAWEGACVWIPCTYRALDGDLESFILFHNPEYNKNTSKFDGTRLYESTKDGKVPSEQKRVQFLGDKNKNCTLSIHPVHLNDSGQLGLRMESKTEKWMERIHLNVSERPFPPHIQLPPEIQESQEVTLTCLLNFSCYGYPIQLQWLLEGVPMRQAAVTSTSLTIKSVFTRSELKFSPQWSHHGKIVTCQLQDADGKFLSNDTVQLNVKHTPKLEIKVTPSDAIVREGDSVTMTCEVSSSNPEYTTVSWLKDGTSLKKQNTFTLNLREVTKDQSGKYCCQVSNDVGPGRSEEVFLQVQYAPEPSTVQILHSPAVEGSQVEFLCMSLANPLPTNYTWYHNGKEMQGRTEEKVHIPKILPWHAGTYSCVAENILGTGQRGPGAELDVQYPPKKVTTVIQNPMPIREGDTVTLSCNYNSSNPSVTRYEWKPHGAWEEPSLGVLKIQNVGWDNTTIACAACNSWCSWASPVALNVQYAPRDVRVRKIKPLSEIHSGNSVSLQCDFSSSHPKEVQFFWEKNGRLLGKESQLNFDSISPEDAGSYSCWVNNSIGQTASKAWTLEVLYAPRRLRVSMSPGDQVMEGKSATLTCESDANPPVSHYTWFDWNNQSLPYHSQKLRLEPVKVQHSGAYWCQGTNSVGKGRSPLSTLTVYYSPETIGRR

T2: CD25-Fc (recombinant human IL-2 R alpha/Fc Chimera, R&D systems) (human, UniProt P01589 22-240)
T2 construct: extracellular domain; Bought chimera, held on the plate by the capture mAb; also called captured CD25-Fc; Fc part of the bought chimera not given; not described
T2 sequence (looked up): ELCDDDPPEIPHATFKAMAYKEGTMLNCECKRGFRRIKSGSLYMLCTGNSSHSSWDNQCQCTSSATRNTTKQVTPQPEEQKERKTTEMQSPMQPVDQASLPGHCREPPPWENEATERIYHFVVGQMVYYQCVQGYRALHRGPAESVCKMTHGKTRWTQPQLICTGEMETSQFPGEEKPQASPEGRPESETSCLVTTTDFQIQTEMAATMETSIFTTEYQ


What was measured:
[1] = biological target: T1, hCD22-Fc, captured via the anti-human …; test: ELISA, hCD22-Fc captured at 1 µg/ml, mutein dilution series
hCD33-Fc (R&D) [2] = biological target: T3, hCD33-Fc (R&D) (human, UniProt P20138 18-259); test: ELISA on hCD33-Fc (1 µg/ml), mutein dilution series, Streptactin-HRP detection; apparent KD from curve fit
T3 construct: extracellular domain; Bought from R&D (printed as R&D Research and as R&D Systems); not shown: Fc part of the bought fusion protein; not described
Experimental: (§1) After another washing step, a dilution series of the mutein S76.1H10, obtained in Example 9, in PBST covering an appropriate concentration rage was added to the coated hCD22 and the control proteins hCD33-Fc, HSA and hIgG1 and incubated for 1 h at RT. Bound mutein was subsequently detected via Streptactin-HRP conjugate (IBA) and the fluorogenic HRP-substrate QuantaBlu™ (PIERCE) according to the respective manufacturers' recommendations. After an appropriate incubation time at room temperature, fluorescence was excited at a wavelength of 320 nm (±12.5 nm) and measured at 430 nm (±17.5 nm) in a GENiosPlus plate reader.
The targets hCD33-Fc (1 μg/ml, R&D Research) and hCD22-Fc (1 μg/ml, Peprtoech) were captured via the AffiniPure mouse anti-human IgG FcGamma fragment-specific antibody for 1 h at RT. Afterwards, the ELISA was performed with the TLPC muteins from Example 29 as described in Example 10.

hCD33-Fc (R&D) [3] = biological target: T3, hCD33-Fc (R&D); test: SPR (BIAcore X), hCD33-Fc (3000 RU) captured via anti-human IgG Fc antibody on CM5 chip, mutein injected at 10 µM
T3 sequence (P20138 18-259): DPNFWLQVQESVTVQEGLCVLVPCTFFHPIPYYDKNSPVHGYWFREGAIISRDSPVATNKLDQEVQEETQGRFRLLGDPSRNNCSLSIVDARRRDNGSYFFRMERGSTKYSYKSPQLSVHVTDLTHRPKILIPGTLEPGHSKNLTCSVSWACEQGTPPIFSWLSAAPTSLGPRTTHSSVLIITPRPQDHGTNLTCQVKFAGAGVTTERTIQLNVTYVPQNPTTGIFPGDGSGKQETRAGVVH
Experimental: (§2) 14000 response units (RU) AffiniPure mouse anti-human IgG Fc Gamma fragment-specific antibody (Jackson Immunoresearch) were coupled by amine coupling to a CM5 sensor chip (Biacore) according to the manufacturers' recommendations. 3000RU hCD33-Fc (R&D research) were captured to this surface by injecting 10 μl of a 0.2 mg/ml hCD33-Fc solution at a flow rate of 2 μl/min. BBS (10 mM HEPES, 150 mM NaCl, 2 mM EDTA, 0.005% v/v Tween pH 7.4) was used as running buffer. All samples were diluted in this running buffer. The TLPC muteins, obtained in example 29, were added to the hCD33-Fc captured surface by injection of a 40 μl sample with a 20 μl/min flow rate. The solutions of added TLPC mutein were 10 μM and 6.4 μM for S101.2 A20 and S101.2 O08, respectively. The surface of the chip was regenerated with 10 mM HCl followed by recoupling of hCD33-Fc before the next lipocalin mutein was measured. All measurements were performed on a BIAcore X apparatus.

hCD33-Fc (R&D) [4] = biological target: T3, hCD33-Fc (R&D); test: SPR (BIAcore X), hCD33-Fc (2000 RU) captured via anti-human IgG Fc antibody on CM5 chip, mutein injected at 5 µM
Experimental: as §2

[5] = biological target: T4, human serum albumin (HSA, Sigma) (human, UniProt P02768 25-609); test: ELISA, control coated, mutein dilution series
T4 construct: Control protein; also called HAS; human serum albumine
T4 sequence (P02768 25-609 limits assumed): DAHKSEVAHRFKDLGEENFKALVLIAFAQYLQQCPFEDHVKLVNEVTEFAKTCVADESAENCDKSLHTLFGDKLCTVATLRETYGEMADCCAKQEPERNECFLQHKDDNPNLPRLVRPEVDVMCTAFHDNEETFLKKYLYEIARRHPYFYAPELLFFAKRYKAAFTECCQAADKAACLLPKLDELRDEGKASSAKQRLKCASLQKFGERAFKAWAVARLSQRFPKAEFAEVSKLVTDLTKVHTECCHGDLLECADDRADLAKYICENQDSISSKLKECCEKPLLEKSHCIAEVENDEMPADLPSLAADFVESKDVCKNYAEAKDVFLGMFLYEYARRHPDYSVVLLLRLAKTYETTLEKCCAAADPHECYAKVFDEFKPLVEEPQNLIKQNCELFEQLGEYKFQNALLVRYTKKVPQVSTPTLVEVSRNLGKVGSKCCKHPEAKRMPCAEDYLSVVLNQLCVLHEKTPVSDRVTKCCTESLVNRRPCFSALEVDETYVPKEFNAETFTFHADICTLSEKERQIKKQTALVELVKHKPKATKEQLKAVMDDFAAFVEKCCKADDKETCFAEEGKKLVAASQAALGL

[6] = biological target: T2, CD25-Fc (recombinant human IL-2 R …); test: ELISA, CD25-Fc (2.5 µg/ml) captured via capture mAb, mutein dilution series, Streptactin-HRP detection; apparent KD from curve fit
Experimental: (§3) For this purpose, the wells of a black Fluotrac 600 microtiter plate (Greiner; 384 well) were coated with the capture mAb (Mouse Anti-Human IgG, Fcgamma Fragment Specific; Jackson ImmunoResearch) at a concentration of 5 μg/ml for 1 h at RT or OIN at 4° C. After a washing step and a subsequent blocking step with 3% w/v milk powder in PBST, CD25-Fc at a concentration of 5 μg/ml was added and incubated for one hour at RT. In parallel, the unrelated proteins capture mAb, HSA and FCS (Fetal Calf Serum; Invitrogen) were coated at concentrations of 5 μg/ml, 10 μl/ml and 10 μg/ml, respectively. In addition, human IgG Fc fragment (Accurate Chemical) was captured at a concentration of 5 μg/ml via the capture mAb coated at 5 μg/ml.
as §1, with “S67.7 C6” for “S76.1H10, obtained in Example 9,”, “range” for “rage”, “captured CD25-Fc” for “coated hCD22”, “capture mAb, HSA, FCS” for “hCD33-Fc, HSA”, “captured human IgG Fc fragment” for “hIgG1”, “(MBA)” for “(IBA)”
The assay was performed as described in Example 14, except that 2.5 μg/ml CD25-Fc and 2.5 μg/ml human IgG Fc fragment were used for capturing.

[7] = biological target: T2, CD25-Fc (recombinant human IL-2 R …); test: as above; remark: listed apart in the source
Experimental: as §3
After another washing step, a dilution series of the mutein S67.7 C6 in PBST covering an appropriate concentration range was added to the captured CD25-Fc and the control proteins capture mAb, HSA, FCS and captured human IgG Fc fragment and incubated for 1 h at RT. Bound mutein was subsequently detected via Streptactin-HRP conjugate (MBA) and the fluorogenic HRP-substrate QuantaBlu™ (PIERCE) according to the respective manufacturers' recommendations. After an appropriate incubation time at room temperature, fluorescence was excited at a wavelength of 320 nm (±12.5 nm) and measured at 430 nm (±17.5 nm) in a GENiosPlus plate reader. […]

hCD33-Fc (R&D) [8] = biological target: T3, hCD33-Fc (R&D); test: SPR (BIAcore X), hCD33-Fc (3000 RU) captured via anti-human IgG Fc antibody on CM5 chip, mutein injected at 6.4 µM
Experimental: as §2

Binder | binding result [1] | Kd (hCD33-Fc (R&D) [2]) [nM] | binding result [5] | Kd [6] [nM] | also measured
TLPC mutein S101.2 A20 (designed binder, Made from pTLPC14, with N-terminal T7-tag and C-terminal Strep-tag II; also called CD33 S101.2 A20) DASMTGGQQMGASDEEIQDVPGTWYLKAMTVVHGVHDLFLESVTPMTLTTLEGGNLEAKVTMFGNGRCQEVNAVLEKTDEPGKYTADGGNHVAYIIRSHVKDHYIFYSEGEHMGWTVRGVQLVGRDPKNNLEALEDFEKAAGARGLSTESILIPRQSETCSPGSAWSHPQFEK | no binding | 5.2 | – | – | Kd (hCD33-Fc (R&D) [3]): 87 nM; koff (hCD33-Fc (R&D) [3]): 0.002 s⁻¹; kon (hCD33-Fc (R&D) [3]): 23000 M⁻¹ s⁻¹
TLPC mutein S100.1 I08, dimeric fraction (designed binder, this is the dimeric fraction of the size exclusion chromatography; also called CD33 S100.1 I08 (dimer); CD33 S100.1 I08) DASMTGGQQMGASDEEIQDVPGTWYLKAMTVGSGSICTCSESVTPMTLTTLEGGNLEAKVTMVVRGRCQEVKAVLEKTDEPGKYTADGGNHVAYIIRSHVKDHYIFYSEGEVMGLPVRGVQLVGRDPKNNLEALEDFEKAAGARGLSTESILIPRQSETCSPGSAWSHPQFEK | no binding | – | – | – | Kd (hCD33-Fc (R&D) [4]): 57 nM; koff (hCD33-Fc (R&D) [4]): 0.00085 s⁻¹; kon (hCD33-Fc (R&D) [4]): 15000 M⁻¹ s⁻¹
TLPC mutein S100.1 I08, monomeric fraction (designed binder, They are in wild-type Tlpc numbering, not counted on the entry; also called CD33 S100.1 I08 (monomer)) DASMTGGQQMGASDEEIQDVPGTWYLKAMTVGSGSICTCSESVTPMTLTTLEGGNLEAKVTMVVRGRCQEVKAVLEKTDEPGKYTADGGNHVAYIIRSHVKDHYIFYSEGEVMGLPVRGVQLVGRDPKNNLEALEDFEKAAGARGLSTESILIPRQSETCSPGSAWSHPQFEK | no binding | – | – | – | –
TLPC mutein S99.4 F15 (designed binder, Made from pTLPC8, with C-terminal T7 tag and Strep-tag II; monomeric fractions were used; also called S99.4 P15) DGGVGRRGLSGTWYLKAMTVDRESPEMNLESVTPMTLTGLAGGDLEAKVTMLISGRCQEVKAVLEGTNELDKYTADGGKHVAYIIHPHVTDHLIFYSEGQLHGKPVRGVKLVGRDPKNNLEALEDFEKAAGARGLSTESILIPRQSETCSPGDASMTGGQQMGSAWSHPQFEK | – | – | no binding | 22 | –
TLPC mutein S101.2 O08 (BIAcore; fraction not stated) (designed binder, Same polypeptide as m36 and m37; also called CD33 S101.2 O08; S101.2 008) DASMTGGQQMGASDEEIQDVPGTWYLKAMTVPDLSLTLQATAESVTPMTLTTLEGGNLEAKVTMFGYGRCQEVKAVLEKTDEPGKYTADGGNHVAYIIRSHVKDHYIFYSEGELMGVLVRGVQLVGRDPKNNLEALEDFEKAAGARGLSTESILIPRQSETCSPGSAWSHPQFEK | – | – | – | – | Kd (hCD33-Fc (R&D) [8]): 146 nM; koff (hCD33-Fc (R&D) [8]): 0.0019 s⁻¹; kon (hCD33-Fc (R&D) [8]): 13000 M⁻¹ s⁻¹

Second part, led by results:

binding result [1] | Kd (hCD33-Fc (R&D) [2]) [nM] | binding result [5] | Kd [6] [nM] | Binder | also measured
– | – | no binding | 307 | TLPC mutein S99.3 C13 (designed binder, Made from pTLPC8, with C-terminal T7 tag and Strep-tag II; monomeric fractions were used) DGGVGRRGLSGTWYLKAMTVDRESPEMNLESVTPMTLTGLAGGDLEAKVTMLISGRCQEVKAALEGTNELDKYTADGGKHVVYIIHPHVTDHLIFYSEGQLHGKPVRGVKLVGRDPKNNLEALEDFEKAAGARGLSTESILIPRQSETCSPGDASMTGGQQMGSAWSHPQFEK | –
– | – | no binding | 302 | TLPC mutein S99.3 H24 (designed binder, Made from pTLPC8, with C-terminal T7 tag and Strep-tag II; monomeric fractions were used) DGGVGKRGLSGTWYLKAMTVDREFPEMDLESVTPMTLTGLAGGDLEAKVTMLISGRCQEVKAVLEGTNELDKYTADGGKHVAYIIHPHVTDHLIFYSEGQLHGKPVRGVKLVGRDPKNNLEALEDFEKAAGARGLSTESILIPRQSETCSPGDASMTGGQQMGSAWSHPQFEK | –
– | – | no binding | – | TLPC mutein F92.8 M1.2 E15, dimeric fraction (designed binder, This is a homodimer from the size-exclusion column. The patent does not say whether the dimer is non-covalent or disulfide-linked., Same polypeptide as the monomer; this is the dimeric peak of the size exclusion column) chain 1: DGGVGRRGLSGTWYLKAMAVDREFPEMNLESVTPMTLTGLAGGDLGVKVTMLISGRCQEVKAVLEGTNELDKYTADGGKHVAYIIHSHVTDHLILYSEGQLHGKPVRGVKLVGRDPKNNLEALEDFEKAAGARGLSTESILIPRQSETCSPGSAWSHPQFEK chain 2: DGGVGRRGLSGTWYLKAMAVDREFPEMNLESVTPMTLTGLAGGDLGVKVTMLISGRCQEVKAVLEGTNELDKYTADGGKHVAYIIHSHVTDHLILYSEGQLHGKPVRGVKLVGRDPKNNLEALEDFEKAAGARGLSTESILIPRQSETCSPGSAWSHPQFEK | Kd [7]: 6 nM
no binding | 187 | – | – | TLPC mutein S101.2 O08, monomeric fraction (designed binder, Made from pTLPC14, with N-terminal T7-tag and C-terminal Strep-tag II; also called S101.2 008; CD33 S101.2 O08 (monomer)) DASMTGGQQMGASDEEIQDVPGTWYLKAMTVPDLSLTLQATAESVTPMTLTTLEGGNLEAKVTMFGYGRCQEVKAVLEKTDEPGKYTADGGNHVAYIIRSHVKDHYIFYSEGELMGVLVRGVQLVGRDPKNNLEALEDFEKAAGARGLSTESILIPRQSETCSPGSAWSHPQFEK | –
no binding | 83 | – | – | TLPC mutein S101.2 O08, dimeric fraction (designed binder, Same polypeptide as the monomer; this is the dimeric fraction of the size exclusion chromatography; also called CD33 S101.2 O08 (dimer)) DASMTGGQQMGASDEEIQDVPGTWYLKAMTVPDLSLTLQATAESVTPMTLTTLEGGNLEAKVTMFGYGRCQEVKAVLEKTDEPGKYTADGGNHVAYIIRSHVKDHYIFYSEGELMGVLVRGVQLVGRDPKNNLEALEDFEKAAGARGLSTESILIPRQSETCSPGSAWSHPQFEK | –
